Experimental data: the supplement of paper PMC11417369
± gives the standard deviation of the averaged measurements. This is one part of the list.

Tested on: PfAP2-I AP2 domain 3 (GST-tagged)
Experiment: gcPBM binding intensity (ln(normalized median fluorescence intensity)); higher = stronger DNA binding
Method in brief: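 DNA-binding domains from P. falciparum, fused to GST and produced in E. coli, were put on an Agilent 4 × 180k double-stranded probe array for 1 h in 1× PBS holding 1% milk, 0.2 mg/ml BSA, 0.5% salmon testes DNA and 0.03% Triton X-100. Probes were primer-extended, 36 bp long and drawn from intergenic genomic regions, with negative controls included. After Alexa488 anti-GST antibody detection and a 488 nm scan, binding intensity was set as the highest Masliner-normalised natural-log median intensity across replicate spots of either probe orientation.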

Row | Sequence | gcPBM binding intensity (ln)
1 | TATTTATTTATTTAATGTACAAAAGAACAAGAATTT [XGTACX_site2248] | 7.83 ± 0.66
2 | TATGTATATACATAAACATGCAAAAACAATATCTTA [TGCATGCA_site950] | 7.61 ± 0.63
3 | TTCTTCTGTTTTATTACACACCATTTTGTGTATACA [CACACA_site7059] | 8.41 ± 0.76
4 | TCTTAATCGTATTATTACTATAATTATATAATATTT [CACACA_negctrl_site1594] | 7.77 ± 0.49
5 | AACGATATATGTACTACACACATTATGTCATCCTAT [CACACA_site2464] | 7.98 ± 0.45
6 | CAAAAAGGAATGTATGCACACAATTGATTTTAACTC [CACACA_site1468] | 8.66 ± 0.61
7 | ATATATATATTATATAGTACAGAGTATACTATTATA [XGTACX_site1893] | 8.48 ± 0.13
8 | ACAAAAGGGGAATACACACACATATATATATATATA [CACACA_site2215] | 9.35 ± 0.39
9 | GATCTAAAAACAAGGTGTACAAGAAAAAAAAAAAAA [XGTACX_site7577] | 8.36 ± 0.77
10 | ATATATATATAATGTTGTACATAAATATTATATTTA [XGTACX_site5225] | 8.96 ± 0.12
11 | TTTTTATTTATTCTCTTTGTATTATAAAATAAAAGC [XGTACX_negctrl_site253] | 7.67 ± 0.5
12 | GGAAAAATATAATATGCATGTTATTATTTTTTTATA [TGCATGCA_site836] | 8.07 ± 0.99
13 | TTTTTTTTCAATGGCACACATTTTAGATTTATGCTT [CACACA_site4735] | 8.26 ± 0.4
14 | CATAAATAATATATTTGTACGAATAAAATTTGTTCA [XGTACX_site3445] | 7.49 ± 0.34
15 | TAAAACAATATAAAATGTACAGAATTTTTTTTTCTT [XGTACX_site6820] | 7.51 ± 0.44
16 | TTCTTTTATGATAATTGTACCCTTTTTAAAAAGAAA [XGTACX_site7815] | 8.26 ± 0.21
17 | ATAATGAAAAGAAAGGGTACAAAAAAAAAAAAAAAT [XGTACX_site3350] | 7.97 ± 0.44
18 | AACTGATTATTTTTTTGTACATATATAATAATATAT [XGTACX_site5953] | 7.92 ± 0.42
19 | ATATGGATTATACATACATGCATACATACATACATA [TGCATGCA_site475] | 7.84 ± 0.76
20 | TATATACATATATGCACACAAAAAAATATATATTTT [CACACA_site1729] | 8.99 ± 0.11
21 | AATGATACACATATATGTACATATATATATATATAT [XGTACX_site5391] | 9.24 ± 0.41
22 | TGCAATATATCAAAGTGTACATGCAATAAAAAAAAA [XGTACX_site652] | 8.54 ± 0.74
23 | AAAATTTAATATAATGCACACATAAAACAAAAACAA [CACACA_site8071] | 10.9 ± 0.64

Row | Sequence | gcPBM binding intensity (ln)
24 | AAATGTAGAAAAAGTTGTACACTGTTTCAAAAATAA [XGTACX_site1063] | 7.89 ± 0.44
25 | TTTAAAGTTTTATACACACACCAAAGTTATTCTAAT [CACACA_site6432] | 7.68 ± 0.52
26 | CAATGAAAAATAATGAGTACATAGTTAATAAAGATA [XGTACX_site72] | 7.89 ± 0.54
27 | ATAATTAAAATTAAATGTACTTTTTTATATATTTTT [XGTACX_site2209] | 7.57 ± 0.35
28 | AATTTCTTTTTCGATATACACACTGTATGTGTCTAA [CACACA_site3975] | 7.74 ± 0.72
29 | ATCTTAATTTTTGAAGGTACACACTAATATATTAAA [XGTACX_site2292] | 7.83 ± 0.38
30 | ATATTTTATTATATAGGTACACATAATTTCATGTAA [XGTACX_site415] | 7.83 ± 0.52
31 | TATATAGTAAATATTTGTACATAATAAAATATATGT [XGTACX_site7873] | 7.67 ± 0.46
32 | TTTTGTACATCTTTTGCACACGTAATGTTATTATAA [CACACA_site1259] | 9.39 ± 0.2
33 | AATAAATAAAAATGCACACAGTTAACATGTTGAATT [CACACA_site4795] | 8.62 ± 0.21
34 | TATAATATAAAAATGAGTACATAGATAATAATATTT [XGTACX_site2376] | 7.91 ± 0.6
35 | TTTTTTTTTTATTAATGTACAAGATATATAATGTTA [XGTACX_site4809] | 7.7 ± 0.64
36 | ATATATATTTTTAATTGTACAGAATTAAAAATATTG [XGTACX_site1967] | 7.64 ± 0.45
37 | AAAAAAAAAAAAAGCTGTACAATTAAAGACAAACCT [XGTACX_site8610] | 7.85 ± 0.49
38 | CTTTAACCATATATGTGTACGTATTTTATTCATATT [XGTACX_site6212] | 8.29 ± 0.46
39 | AAGAAGTGGAAAATATACTCCACATATATATATGTG [CACACA_negctrl_site304] | 8.51 ± 0.57
40 | AAAAAACAATTTGTGTGTACACATGATACGTTCGAT [XGTACX_site4112] | 8.12 ± 0.63
41 | TTTTTTACAGAAAAATATTAAAATTATAAATGTGAA [GTGCAC_negctrl_site451] | 7.72 ± 0.39
42 | GCCCACACGAACCATGCATGCCACGATATAAACCAC [TGCATGCA_site322] | 8.34 ± 0.82
43 | TAATATATATATATGGTGCATTTAATTTATATATAA | 11.2 ± 0.74
44 | TATGAAATTTTAATTACACACAGGAAAATAAAATGT [CACACA_site8430] | 7.89 ± 0.78
45 | TTATAATATATATAAAAGAAAAAAAATTATAATATA [CACACA_negctrl_site90] | 7.56 ± 0.59
46 | TTATTTTTCTTTATTGGTACACACGAAAAAAAAATT [XGTACX_site6482] | 8.03 ± 0.3

Row | Sequence | gcPBM binding intensity (ln)
47 | TAATATATGTTATATACACACATATAAATATAAATA [CACACA_site6339] | 7.63 ± 0.45
48 | TGTGTATAAGTCACTTGTACTAGTAGTAAAAAAAAA [XGTACX_site4341] | 7.96 ± 0.6
49 | TGAAGTATAATTTATCTAATATGTTATATTTTATTT [TGCATGCA_negctrl_site56] | 7.04 ± 0.36
50 | TTTAATATTATTATTTTACACACTTTTTTCCTTTTA [CACACA_site8780] | 7.51 ± 0.77
51 | CAAATAATATTATGAAGTACTTCAAATTTTGAAAGA [XGTACX_site2530] | 7.75 ± 0.54
52 | TCTTATAAACTCTGCACACATAATATATTAAATGAG [CACACA_site1936] | 8.59 ± 0.33
53 | AATATAGGTATATCCACACACATATTTATATTTATA [CACACA_site6867] | 7.76 ± 0.6
54 | TAAAGTTTTTCCTATCTATATTTATATTATAAATGA [XGTACX_negctrl_site20] | 7.49 ± 0.56
55 | GTGAGTGAAATATGCAAACACACACCCGAAAAATGT [CACACA_site3197] | 8.29 ± 0.85
56 | TATGATTTTAATGAAACACACAATTTTATGTTAATA [CACACA_site311] | 7.38 ± 0.55
57 | TATAAAGGTATACAAAGTACAAAATACATATATACT [XGTACX_site6431] | 7.46 ± 0.46
58 | TTTTAGTTATTGTATTATTATTAATATATAATATCT [CACACA_negctrl_site1528] | 7.39 ± 0.6
59 | AAAGCATGTTAATATGTATAAATACTGATCATTCAC [GTGCAC_negctrl_site576] | 7.62 ± 0.42
60 | CTAAAATGTAAAAACGCACACATAATATTATAAAAA [CACACA_site2788] | 8.38 ± 0.45
61 | AACAGATAATATAAAAAAAAAAAAAAAAATAATTAA [GTGCAC_negctrl_site69] | 7.16 ± 0.59
62 | TGAATAAATCAAAGCACACATACACAGACATATATA [CACACA_site4316] | 8.405 ± 0.035
63 | CTTGTCATTTGGCACACACACATGTATAGGTTATTA [CACACA_site5656] | 8.44 ± 0.4
64 | TATATAAATAAACACACACACACCTTATAATTATTA [CACACA_site9345] | 7.86 ± 0.37
65 | GTAGTGGTTGAATATACACACATATATATATATATA [CACACA_site2651] | 9.41 ± 0.54
66 | AACGTGTATTTATATTGTACACATTCATACATCAAA [XGTACX_site3644] | 8.54 ± 0.55
67 | AGATAATAGGTTACTTGTACATATAAATAAATATAT [XGTACX_site158] | 7.55 ± 0.49
68 | TTTTGTTATTATGAAGTGCATTTATGTTCATGTCTA | 9.74 ± 0.25
69 | AAAAAAAAAAAAAATTCACACAAGACTACTACATTT [CACACA_site4195] | 7.68 ± 0.59

Row | Sequence | gcPBM binding intensity (ln)
70 | AAAATCTAATATAATGCACACATAAAAAAAAATCAA [CACACA_site9211] | 10.9 ± 0.59
71 | ATATTAATTTCTCATGCATGTTCTACCCAATTGTAA [TGCATGCA_site355] | 8.1 ± 0.8
72 | TATATTATATATATACTGCACTGTTTTACAAAATTA | 10.8 ± 0.57
73 | ACCCTTTTATATAAGAGTACAAACGTATTATTAAAT [XGTACX_site2221] | 7.94 ± 0.27
74 | AATATTAAAAACAAAACACACAAAAAAAAATAAAAT [CACACA_site702] | 7.77 ± 0.55
75 | ATATATGACTAATAAAGTACATACTTCATATAATTA [XGTACX_site6699] | 8.09 ± 0.49
76 | TGTACGAGTCGTAGAGTGCAGTCTGGAGAAAAGTAC [GTGCAC_site9683] | 9.4 ± 0.13
77 | TATATATATATATATACACACTTGTGCAGAATATTA [CACACA_site5257] | 9.6 ± 0.15
78 | TATTTTTTTTTTTTTTGTACACATAATTGTAATCGT [XGTACX_site8415] | 7.88 ± 0.38
79 | CCACAGGATTGGTTCAAACACACATATTATATGACT [CACACA_site661] | 7.62 ± 0.65
80 | CATATAAAAATGTGCACACACACACCGATATATATT [CACACA_site4940] | 9.59 ± 0.17
81 | AAAAAAAAAATAAAATAAAATATATTATATATATTA [GTGCAC_negctrl_site431] | 7 ± 0.22
82 | TCACTTTTTATTAAATGTACATGCTTTCATTTTCAT [XGTACX_site8139] | 7.97 ± 0.57
83 | GAATAAATAATTAACACACACAATCTTTTTTTTTTT [CACACA_site3140] | 7.6 ± 0.49
84 | TATATATATATATATGTACACACATCAATCATATTA [CACACA_site8594] | 9.49 ± 0.56
85 | ATAAGGTTACAACAAACACACAAAGGAATATACACA [CACACA_site7840] | 7.99 ± 0.65
86 | AAAATTTTTTGAAATAGTACTTTTTTATATATATAT [XGTACX_site2634] | 9.24 ± 0.13
87 | GAACTCATTACAAAGTGTACAAATTAAATAAATGGT [XGTACX_site3995] | 8.02 ± 0.54
88 | TTTTTCTTATTTGGATTGCACTACATATATATATAT | 9.77 ± 0.28
89 | AGGTGCTTAATATATACACACATACAGATATATATA [CACACA_site5552] | 10.7 ± 0.71
